This passage reports binding results from publication PMC12089419.

The chains behind the UniProt entries cited, without tags or fusion partners.
UniProt Q93009: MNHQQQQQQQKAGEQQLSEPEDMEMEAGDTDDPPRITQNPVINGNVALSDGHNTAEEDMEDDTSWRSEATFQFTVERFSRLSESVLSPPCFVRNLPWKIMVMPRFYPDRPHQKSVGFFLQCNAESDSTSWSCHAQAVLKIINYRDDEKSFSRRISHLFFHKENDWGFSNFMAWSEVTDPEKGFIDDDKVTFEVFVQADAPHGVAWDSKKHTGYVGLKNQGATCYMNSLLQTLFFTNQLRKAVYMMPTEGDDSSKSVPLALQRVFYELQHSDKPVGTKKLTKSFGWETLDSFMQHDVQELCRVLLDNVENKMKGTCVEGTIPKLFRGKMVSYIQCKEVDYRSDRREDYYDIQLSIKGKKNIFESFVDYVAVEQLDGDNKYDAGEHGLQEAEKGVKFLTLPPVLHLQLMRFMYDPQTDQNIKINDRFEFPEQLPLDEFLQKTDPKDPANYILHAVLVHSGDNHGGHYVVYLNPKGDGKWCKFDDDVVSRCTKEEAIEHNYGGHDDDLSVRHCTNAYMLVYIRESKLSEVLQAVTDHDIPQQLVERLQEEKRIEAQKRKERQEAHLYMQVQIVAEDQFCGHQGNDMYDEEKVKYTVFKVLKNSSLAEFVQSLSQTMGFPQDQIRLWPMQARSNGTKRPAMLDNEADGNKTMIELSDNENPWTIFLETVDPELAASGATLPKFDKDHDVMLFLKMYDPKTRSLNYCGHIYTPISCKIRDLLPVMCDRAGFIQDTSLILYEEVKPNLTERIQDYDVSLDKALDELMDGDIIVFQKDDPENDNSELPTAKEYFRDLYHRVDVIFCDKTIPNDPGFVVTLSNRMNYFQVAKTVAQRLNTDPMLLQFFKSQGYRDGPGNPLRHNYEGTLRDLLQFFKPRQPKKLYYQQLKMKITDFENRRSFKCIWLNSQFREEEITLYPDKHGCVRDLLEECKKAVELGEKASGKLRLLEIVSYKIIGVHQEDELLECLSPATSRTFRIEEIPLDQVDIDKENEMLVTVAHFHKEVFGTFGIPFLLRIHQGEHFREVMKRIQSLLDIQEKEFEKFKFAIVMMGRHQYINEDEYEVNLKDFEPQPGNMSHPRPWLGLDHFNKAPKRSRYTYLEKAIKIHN
UniProt Q92830: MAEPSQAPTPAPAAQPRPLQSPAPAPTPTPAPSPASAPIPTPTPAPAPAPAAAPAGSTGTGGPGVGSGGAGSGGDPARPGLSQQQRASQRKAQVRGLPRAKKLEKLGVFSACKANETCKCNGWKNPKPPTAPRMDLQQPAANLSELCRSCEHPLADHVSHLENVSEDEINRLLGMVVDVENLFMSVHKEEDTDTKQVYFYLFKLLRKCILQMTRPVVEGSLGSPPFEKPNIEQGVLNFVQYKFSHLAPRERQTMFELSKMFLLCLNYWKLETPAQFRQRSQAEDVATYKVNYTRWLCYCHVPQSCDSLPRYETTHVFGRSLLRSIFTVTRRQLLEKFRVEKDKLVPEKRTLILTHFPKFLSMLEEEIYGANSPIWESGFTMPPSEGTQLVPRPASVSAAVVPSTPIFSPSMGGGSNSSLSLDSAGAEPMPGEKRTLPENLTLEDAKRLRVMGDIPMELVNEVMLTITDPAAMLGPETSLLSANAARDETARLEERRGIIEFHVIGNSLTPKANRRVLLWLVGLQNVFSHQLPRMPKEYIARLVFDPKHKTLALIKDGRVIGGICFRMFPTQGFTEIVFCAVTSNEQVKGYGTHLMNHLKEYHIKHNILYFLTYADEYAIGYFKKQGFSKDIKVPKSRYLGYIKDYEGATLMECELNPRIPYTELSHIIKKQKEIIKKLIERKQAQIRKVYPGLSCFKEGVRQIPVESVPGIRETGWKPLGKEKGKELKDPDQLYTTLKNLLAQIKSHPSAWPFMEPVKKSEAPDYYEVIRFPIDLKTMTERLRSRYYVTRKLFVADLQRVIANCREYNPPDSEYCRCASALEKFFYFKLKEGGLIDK

Test [1] addresses T1, endogenous DACH1 (human (endogenous in RKO, HCT8, SW480)) (UniProt Q9UI36).
T1 sequence: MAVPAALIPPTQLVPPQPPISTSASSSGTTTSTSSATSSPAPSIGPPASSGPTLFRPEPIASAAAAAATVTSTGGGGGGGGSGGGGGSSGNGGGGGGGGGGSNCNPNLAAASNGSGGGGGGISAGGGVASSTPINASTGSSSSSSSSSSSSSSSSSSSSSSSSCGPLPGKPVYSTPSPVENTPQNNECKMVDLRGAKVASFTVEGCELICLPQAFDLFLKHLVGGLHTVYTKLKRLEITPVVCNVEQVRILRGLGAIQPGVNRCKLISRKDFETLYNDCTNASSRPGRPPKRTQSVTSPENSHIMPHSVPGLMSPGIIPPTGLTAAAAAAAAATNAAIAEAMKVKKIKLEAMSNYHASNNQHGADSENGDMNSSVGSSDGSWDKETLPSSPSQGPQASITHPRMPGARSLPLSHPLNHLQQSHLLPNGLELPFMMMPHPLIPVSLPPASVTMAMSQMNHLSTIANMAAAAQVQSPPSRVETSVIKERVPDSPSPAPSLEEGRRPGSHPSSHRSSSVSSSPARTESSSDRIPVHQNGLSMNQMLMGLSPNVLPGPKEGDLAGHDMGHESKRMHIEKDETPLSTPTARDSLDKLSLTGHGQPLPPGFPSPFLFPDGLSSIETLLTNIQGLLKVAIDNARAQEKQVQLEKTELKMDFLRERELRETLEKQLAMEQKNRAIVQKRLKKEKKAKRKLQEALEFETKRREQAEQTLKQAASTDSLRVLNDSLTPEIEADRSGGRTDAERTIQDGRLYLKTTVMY
Put plainly: co-IP; endogenous proteins; RKO, HCT8 and SW480 cells immunoprecipitated with anti-DACH1 or anti-USP7.

Test [2] addresses T1, endogenous DACH1 (human (endogenous in RKO, HCT8, SW480)). Put plainly: co-IP; endogenous proteins; HCT8, RKO and SW480 cells immunoprecipitated with anti-DACH1 or anti-GCN5.

Results are given in words; binding and its absence hold for the method and conditions named. Binding seen in cells or lysates may run through a third protein. Some binding calls cover weakened binding; strength is not graded here.

Regarding “endogenous USP7 (from UniProt Q93009 1-1102) (enzyme)”, the binding result in test [1] is “binds”.

With “endogenous GCN5 (from UniProt Q92830 1-837) (enzyme)”, the binding entry in test [2] is “binds”.
